The whole screen tested about 310,000 compounds, of which about 2,200 (0.71%) showed an effect of 50% or more. Effects have a minus sign here. Some of the results follow. Where a SMILES comes first, the peptide text is derived from it. [ ]: non-standard residue; d: D form. The star is where a group is joined. ξ: configuration not given here. Boc = CC(C)(C)OC(=O)*; ξP = O=C(O)C1CCCN1
molecular target: human ether-à-go-go-related gene (hERG) potassium channel (human, UniProt Q12809); assay: primary screen, population patch clamp on CHO cells stably expressing hERG
Sequence (Q12809 whole entry, looked up): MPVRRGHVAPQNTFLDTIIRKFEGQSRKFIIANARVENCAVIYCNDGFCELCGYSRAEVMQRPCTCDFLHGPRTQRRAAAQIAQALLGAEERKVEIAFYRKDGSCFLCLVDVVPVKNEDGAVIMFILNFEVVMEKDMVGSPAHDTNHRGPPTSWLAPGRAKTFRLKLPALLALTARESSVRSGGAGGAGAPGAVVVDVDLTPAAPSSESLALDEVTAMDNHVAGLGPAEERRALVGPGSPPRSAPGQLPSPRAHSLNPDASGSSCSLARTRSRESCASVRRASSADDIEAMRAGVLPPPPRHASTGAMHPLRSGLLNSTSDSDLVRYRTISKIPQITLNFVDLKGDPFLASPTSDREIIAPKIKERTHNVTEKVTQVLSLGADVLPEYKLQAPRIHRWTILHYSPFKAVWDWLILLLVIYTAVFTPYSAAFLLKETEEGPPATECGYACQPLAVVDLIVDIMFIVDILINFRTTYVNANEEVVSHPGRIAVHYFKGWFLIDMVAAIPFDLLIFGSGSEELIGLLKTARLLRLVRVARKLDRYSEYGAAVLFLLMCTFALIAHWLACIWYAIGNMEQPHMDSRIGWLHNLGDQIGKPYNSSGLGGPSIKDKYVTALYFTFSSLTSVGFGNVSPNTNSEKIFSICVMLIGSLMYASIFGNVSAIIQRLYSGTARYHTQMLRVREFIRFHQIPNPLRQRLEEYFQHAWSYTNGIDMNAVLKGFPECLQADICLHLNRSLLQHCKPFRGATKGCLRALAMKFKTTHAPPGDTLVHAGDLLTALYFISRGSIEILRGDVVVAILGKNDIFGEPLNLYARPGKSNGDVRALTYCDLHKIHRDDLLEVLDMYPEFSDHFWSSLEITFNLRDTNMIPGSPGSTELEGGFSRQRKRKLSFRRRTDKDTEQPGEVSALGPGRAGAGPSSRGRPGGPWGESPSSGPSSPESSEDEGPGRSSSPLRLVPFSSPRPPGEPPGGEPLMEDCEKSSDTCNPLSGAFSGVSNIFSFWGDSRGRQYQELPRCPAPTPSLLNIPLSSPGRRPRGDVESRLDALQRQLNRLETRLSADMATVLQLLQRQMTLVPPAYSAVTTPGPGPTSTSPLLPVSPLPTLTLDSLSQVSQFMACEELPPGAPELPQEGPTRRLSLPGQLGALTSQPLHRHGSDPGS

| SMILES | hERG current change (%, negative = inhibition) at 1uM |
| --- | --- |
| CC(=O)c1cccc(NC(=O)N2CCC(NC(=O)C34CC5CC(CC(C5)C3)C4)CC2)c1 | 10.1% |
| CC(=O)Nc1ccc(S(=O)(=O)NC(CC(=O)NC2CCCCC2C)C(C)C)cc1 (centres unmarked) | 9.89% |
| COc1ccccc1N=C1SCCCN1C.I | -16.4% |
| CCOC(=O)C1(Cc2cccc(F)c2)CCN(C(=O)C2CCCO2)CC1 (centres unmarked) | 12% |
| CCOc1ccc(-n2c(N)c(C(=O)NCc3ccco3)sc2=S)cc1 | -2.01% |
| COC(=O)[C@@]12CCCN1[C@H](c1ccc(SC3CCCCC3)cc1)[C@H]1C(=O)N(C)C(=O)[C@H]12.O=C(O)C(F)(F)F | 13% |
| Cc1cccc(C)c1NC(=S)N(c1ccccc1)C(C)C | 9.36% |
| CSc1nsc(SC)c1NC(=O)OC1CCCCC1 | 1.08% |
| CCOC(=O)c1ccc(C(=O)OCC)c(NC(=S)Nc2ccc([N+](=O)[O-])cc2OC)c1 | 4.02% |
| Cn1cccc1Cc1nnc(SCC(=O)NCCc2ccccc2)n1C | 7.58% |
| O=C(Nc1cccc(F)c1)c1ccc(-c2ccccc2Cl)o1 | -6.29% |
| Cc1nonc1C1CCCN1Cc1nc(-c2ccc(F)cc2F)oc1C (centres unmarked) | 10.8% |
| Cc1cccc(N2C(=O)CN(Cc3sccc3C)C2=S)c1 | 8.18% |
| O=C(CCCC(=O)OCC(Cl)=C(Cl)Cl)Nc1ccc(F)cc1 | 10.3% |
| COc1ccc(NC(=O)CN2C(=O)NC(C)(c3ccccc3)C2=O)cc1Cl (centres unmarked) | -2.24% |
| CC(=O)c1cnc2cc(C)nn2c1C | 5.81% |
| CCN(C(=O)CN1CCN(Cc2ccccc2)CC1)c1c(N)n(Cc2ccccc2)c(=O)[nH]c1=O | 23.3% |
| CC(=O)Nc1ccc(NC(=O)Nc2ccc(C)cc2C)cc1 | 10.9% |
| Cn1c(=O)[nH]c(=O)c2c1nc(CN1CCN(c3cccc(Cl)c3)CC1)n2Cc1ccccc1Cl | 14.3% |
| CCN(CC)c1ccc(CNc2ccc3c(c2)ncn3CC)cc1 | 10.9% |
| COC(=O)[C@@H](c1ccccc1)N(C)S(=O)(=O)c1cccc(S(=O)(=O)N(C)[C@@H](C(=O)OC)c2ccccc2)c1 | 10.1% |
| Cc1cc(-c2n[nH]c(=S)n2/N=C/c2cccc([N+](=O)[O-])c2)n[nH]1 | 12.4% |

| SMILES | hERG current change (%, negative = inhibition) at 1uM |
| --- | --- |
| CCOC(=O)/C(C#N)=C/c1cccc(C)c1 | 10.9% |
| O=C(Cc1ccc(Cl)cc1)N1CCc2ccccc2C1 | 21.7% |
| COc1ccc(NC(=O)c2cccc([N+](=O)[O-])c2)cc1 | 16.6% |
| COC(=O)CNC(=O)C1CCCN1C(=O)OC(C)(C)C (centres unmarked) (Boc-[ξP]-Gly-OMe) | 6.64% |
| Cc1nnc(SCC(=O)Nc2sccc2C(N)=O)n1Cc1ccccc1 | -6.83% |
| CC(C)CNC(=O)COC(=O)c1c2c(nc3ccccc13)CCC2 | 10.2% |
| CC(C)N1CCC(N2CCN(C3CCCCCC3)CC2CCO)CC1 (centres unmarked) | 19.1% |
| Cl.NCCSC1CC(=O)N(Cc2ccc(F)cc2)C1=O (centres unmarked) | -5.94% |
| CCN(CC(=O)NC(C)(C)C)C(=O)c1ccccc1SCC(=O)NC1CCCCCCC1 | 4.18% |
| O=C(NCc1ccc(Cl)cc1)Nc1ccc(F)cc1 | 16.1% |
| CCOc1ccccc1C(=O)Nc1ccsc1C(=O)OC | 11.8% |
| FC(F)(F)Oc1ccc(NC2=NCCCS2)cc1 | 10.6% |
| O=C(CN1CCCCC1)NNc1nc(-c2ccccc2)c2cc(Br)ccc2n1 | 7.14% |
| NNC(=O)CS(=O)(=O)CS(=O)(=O)CC(=O)NN | 14.2% |
| CCN(CC)CC(O)CN1C(=O)NC(C)(C)C1=O (centres unmarked) | 13% |
| CC(C(=O)NC1CCCC1)N(C(=O)CS(=O)CC(=O)Nc1ccc(F)cc1)c1ccc2c(c1)OCCO2 (centres unmarked) | 13.8% |
| Cl.O=C(COc1ccc(Br)cc1CNC1CCCC1)Nc1ccccc1 | -28.2% |
| O=C(COC(=O)c1c2c(nc3ccccc13)CCCC2)Nc1ccc2c(c1)OCO2 | 13.9% |
| COc1cccc(CNC(=O)CSc2nnc3c(n2)[nH]c2ccccc23)c1 | 5.78% |
| Cc1[nH]c2ccccc2c1C(=O)CN1CCCC(C)C1 (centres unmarked) | 16.3% |
| Cc1cc(CNC(=O)c2ccc3c(c2)OCO3)c2ccccc2n1 | 5.77% |
| COC(=O)C1(Cc2ccccc2)NC(c2ccc(F)cc2)C2C(=O)N(C)C(=O)C21 (centres unmarked) | 4.31% |

Reference: paper PMC4336329 (PLoS ONE, 2015)
